Hit rate of the full screen: of about 94,000 compounds, about 6,200 (6.6%) were called active. This list was built around the results that the source calls inconclusive (neither active nor inactive); the mix of calls is not that of the screen. The call rests on the fitted dose curve; in most records, active means well fitted inhibition curve with a large enough effect; inconclusive means small, poorly fitted or top-dose-only effect; inactive means flat fitted curve, though single readings scatter. Where the call is inconclusive, the potency comes from a doubtful curve fit.
Assay: Cytotoxic Profiling in HEK 293 Cell Line of Diverse Libraries Using Quantitative High-Throughput Screening; further: nearly all actives have a fitted effect of over 60% in size
Details: HEK 293 viability, ATP luminescence (CellTiter-Glo), 48-72 h; series mostly up to 115 µM
Procedure, shortened: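 qHTS cytotoxicity; HEK 293, 250 cells/well; compound pinned; 48 or 72 hr, 37 degree Celsius, 5% CO2, 95% humidity; CellTiter-Glo, 10 min RT; luminescence (ATP).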
Potency means the concentration at half of the fitted maximal effect; tags describe the fitted curve by direction and shape.

SMILES | Potency
Cc1nn(-c2ccccc2)c2c1C(C(C)C)N(C1CCN(C(=O)C(C)(C)C)C1)C2=O (stereo not given) | active: 89.1 µM
Cc1ccc(CN2C(=O)NC3(CCCN(C(=O)c4cc(Cl)ccc4F)C3)C2=O)cc1 (stereo not given) | inconclusive: 89.1 µM [inhibitor, single point]
COC(=O)CNC(=O)C1CCN(C(=O)c2ccc(-c3ccccc3OC)cc2)CC1 | inconclusive: 89.1 µM [inhibitor, single point]
O=[S+]([O-])(c1cccs1)N1CCn2c(nnc2-c2ccc(Cl)cc2)C1 | inconclusive: 56.2 µM [inhibitor, partial curve, poor fit]
O=C1NCCCCCCN(Cc2ccc(F)c(F)c2)[C@H]2CCC[C@@H]12 | inconclusive: 89.1 µM [inhibitor, partial curve, poor fit]
O=C(c1ccccn1)N1CCOc2c(O)cc(-c3cccc(Cl)c3)cc2C1 | active: 44.7 µM
O=C(NCc1ccc2c(c1)OCO2)c1nc(-c2cccc(C(F)(F)F)c2)c2cnccn12 | inactive
Cc1ccc(C(=O)N2CCC3(CC2)Cc2ccccc2NC3=O)cc1 | inconclusive: 44.7 µM [inhibitor, partial curve, poor fit]
CCC1(N2CCN(S(=O)(=O)c3cccs3)CC2)CCN(S(C)(=O)=O)C1 (stereo not given) | inconclusive: 89.1 µM [inhibitor, single point]
O=C(Nc1cccc(F)c1)Nc1ccnn1C1CCN(C(=O)C2CCC2)CC1 | inactive
COc1ncccc1-c1cc(-c2ccccc2)nc2c(C)noc12 | inconclusive: 70.8 µM [inhibitor, partial curve, poor fit]
O=C(NCc1ccccn1)c1ccc(-c2ccc(N3CCCCC3)nc2)cc1 | active: 22.4 µM
COc1ccccc1-c1ccc2c(C(=O)NCCSC)nn(C)c2n1 | inactive
CN1CCCN(C(=O)CCC[C@@H]2[C@H]3CCCN4CCC[C@@H](CN2Cc2cccnc2)[C@@H]34)CC1 | inactive
O=C(Nc1nc2ccccc2s1)C1CC(=O)N(c2n[nH]c3cccc(F)c23)C1 (stereo not given) | active: 12.6 µM
Cc1ccc(C(=O)N2CCCC(n3cc(-c4nc(C5CC5)no4)nn3)C2)cc1F (stereo not given) | inconclusive: 56.2 µM [inhibitor, single point]
COc1ccccc1CN1CCC2(CC1)CC(O)CCO2 (stereo not given) | inactive
COC(=O)c1cccc(C(=O)N[C@H]2CO[C@H]3[C@@H]2OC[C@H]3OC(=O)Nc2ccc(Oc3ccccc3)cc2)c1 | active: 10 µM
CCC(=O)Nc1ccc(C2(C(=O)N3CCN(c4ccccn4)CC3)CCCCC2)cc1 | inconclusive: 20 µM [inhibitor, full curve]
COc1ccc(CCN2CCC(CN(C)Cc3ccc(C#CCCO)cc3)CC2)cc1 | inconclusive: 56.2 µM [inhibitor, partial curve, poor fit]
COc1cccc(-c2noc(Nc3ccc(OC)c(OC)c3)n2)c1 | inconclusive: 10 µM [inhibitor, full curve, poor fit]
COc1ccc(C2Cn3nnc(C(=O)N4CCN(C(=O)c5ccc(F)cc5Cl)CC4)c3CO2)cc1 (stereo not given) | inconclusive: 50.1 µM [inhibitor, partial curve, poor fit]

SMILES | Potency
NC1CCN(C(=O)C2CCN(c3nc(-c4ccccc4)nc4c3CCC4)CC2)C1 (stereo not given) | inconclusive: 50.1 µM [inhibitor, partial curve, poor fit]
COc1ccc(F)cc1-c1cccc(C(=O)NCCNC(=O)c2ccccc2)c1 | inconclusive: 50.1 µM [inhibitor, partial curve, poor fit]
COCCCNc1ccnc(-c2nnc(C)n2-c2ccccc2)c1 | inactive
COc1cc(NC(=O)N[C@H]2CO[C@H]3[C@@H]2OC[C@@H]3Nc2nccc(-c3cccs3)n2)cc(OC)c1 | inconclusive: 8.91 µM [inhibitor, full curve, poor fit]
Cc1ccc(NC(=O)Cn2c(-c3ccc(Cl)cc3)nc(C)c(CCO)c2=O)c(C)c1 | inactive
O=[S+]1([O-])NC2(CCCN(Cc3cccc4ccccc34)C2)CNc2ccccc21 (stereo not given) | inconclusive: 35.5 µM [inhibitor, full curve, poor fit]
CC(=O)N1CCC(N[C@@H]2C[C@H](Cn3cc(-c4cccnc4)nn3)[C@@H](O)[C@H]2O)CC1 | inactive
Fc1ccc(CNC[C@H]2Cn3cc(-c4ccccc4)nc3CO2)cc1 | inconclusive: 100 µM [inhibitor, partial curve]
O=[S+]([O-])(c1ccccc1)N1CCc2nc(C3CC3)nc(-c3ccc(Cl)cc3)c2C1 | inactive
C=CCN1CCN(C(=O)c2ccc3c(c2)C(O)CCCCCN3C)CC1 (stereo not given) | inconclusive: 20 µM [inhibitor, full curve, poor fit]
O=[S+]([O-])(Nc1cccnc1)c1ccc2c(c1)OCCN(Cc1ccccc1)C2 | inconclusive: 39.8 µM [inhibitor, partial curve]
COCCc1nncn1C1CCN(S(=O)(=O)c2ccc(F)c(F)c2)CC1 | inactive
Cc1ccc(C(=O)N2CCC3(CC(Cc4ccccc4)=NO3)C2)cc1 (stereo not given) | inconclusive: 112 µM [inhibitor, single point]
CN(C)[C@@H]1CN(C(=O)c2ccccc2F)CC[C@]1(O)c1ccccc1 | inactive
Cc1c(Cl)cccc1NC(=O)Cn1ccn2nc3c(c2c1=O)CCCCC3 | inconclusive: 89.1 µM [inhibitor, single point]
COc1ccccc1-c1ccc(CN2CCC(NC(=O)c3ccc(Cl)nc3)C2)cc1 (stereo not given) | active: 50.1 µM
COc1cccc(C(=O)NC2CCN(c3cc(C(F)(F)F)nc(C)n3)CC2)c1OC | inconclusive: 44.7 µM [inhibitor, partial curve, poor fit]
O=C(c1ccc2[nH]ccc2c1)N1CC[C@@H]2COCCN(Cc3cccnc3)[C@@H]2C1 | inactive
COc1ccc(S(=O)(=O)N2C[C@@H]3C[C@H](C2)c2c(-c4ccc(NC(C)=O)cc4)ccc(=O)n2C3)cc1 | inactive
C[S+](=O)([O-])N1CC2(CCN(Cc3ccc(Cl)cc3)C2)Cc2ccccc21 (stereo not given) | inconclusive: 56.2 µM [inhibitor, partial curve, poor fit]
CCC(=O)N1CCC(CC)(N2CCN(S(=O)(=O)c3ccccc3C(F)(F)F)CC2)C1 (stereo not given) | inconclusive: 63.1 µM [inhibitor, partial curve, poor fit]
Cc1cc(C)cc(Nc2nc(C)cc(=O)n2CC(=O)Nc2cccc(C#N)c2)c1 | inconclusive: 39.8 µM [inhibitor, full curve, poor fit]

SMILES | Potency
CNC(=O)c1cc(-c2cccnc2)cc2c1OCCN2Cc1cccnc1 | inactive
O=C(NCC1(N2CCOCC2)CCCC1)c1cn(Cc2ccccc2Cl)nn1 | inactive
N#CC1CCN(C(=O)c2nc(-c3cccc(C(F)(F)F)c3)c3cnccn23)CC1 | inconclusive: 89.1 µM [inhibitor, single point]
CC1(c2ccccc2)N(Cc2ccccc2)C(=O)OC12CCN(Cc1ccncc1)CC2 (stereo not given) | inconclusive: 100 µM [inhibitor, partial curve, poor fit]
COc1ccc(CCc2nc(NC(=O)Cn3nc4c(cc3=O)CCCCC4)n[nH]2)cc1 | inconclusive: 35.5 µM [inhibitor, partial curve, poor fit]
Cc1ccccc1-c1cnc2[nH]cc(CC(=O)NCc3ccco3)c2c1 | active: 70.8 µM
CN1CC(=O)N(c2ccccc2F)Cc2c(NCC3CCCCC3)ncnc21 | inconclusive: 89.1 µM [inhibitor, single point]
O=C(NCc1ccncc1)c1ccc2c(c1)OCCN(c1cccc(OC(F)(F)F)c1)C2 | inconclusive: 50.1 µM [inhibitor, partial curve, poor fit]
COCC1CN(C(C)=O)CC12CCN(Cc1cccc(C#N)c1)CC2 (stereo not given) | inactive
CCCCn1c(CN(C)C(C)c2ccccc2OC)cnc1S(=O)(=O)CC (stereo not given) | inconclusive: 50.1 µM [inhibitor, partial curve, poor fit]
O=c1[nH]c(C2CCN([S+](=O)([O-])c3cccc(C(F)(F)F)c3)CC2)nn1-c1ccccc1 | inconclusive: 89.1 µM [inhibitor, single point]
O=C(NCc1ccc(F)cc1)C1(c2ccc(Cl)cc2)CCOCC1 | inconclusive: 89.1 µM [inhibitor, partial curve]
CN(C)c1ccc(CN2CCCC3(C2)C(=NC2CCCC2)NC(=O)N3c2cc(F)cc(F)c2)cc1 (stereo not given) | inactive
O=C(Cc1ccc(F)cc1)Nc1cc(-c2ccccn2)nn1-c1ccccc1 | inconclusive: 89.1 µM [inhibitor, single point]
Cc1cccnc1CNC[C@H]1O[C@@H]2C[C@@H](CC(=O)N3CCOCC3)O[C@@H]2[C@@H]1O | inactive
O=C(N[C@H]1CCOC[C@H]1C1CCOCC1)c1cccc(-n2cnnc2)n1 | inactive
Cc1cc(C)cc(-c2ccc(CN3CCCC(NC(=O)c4cccc(Cl)c4)C3)cc2)c1 (stereo not given) | active: 39.8 µM
COc1cccc(C(=O)N2CCN(c3cc(-c4ccccc4)[nH]n3)CC2)c1OC | inconclusive: 50.1 µM [inhibitor, partial curve, poor fit]
O=C(c1ccccn1)N1CCC2(CC1)NC(=O)N(Cc1cccc(Cl)c1)C2=O | inactive
O=C(c1ccn[nH]1)N1CCC(c2noc(COc3ccc(F)cc3)n2)C1 (stereo not given) | inconclusive: 50.1 µM [inhibitor, partial curve, poor fit]
CCOC(=O)c1oc2ccc(S(=O)(=O)N3CCCCCCNC(=O)[C@@H]4CCC[C@@H]43)cc2c1C | inconclusive: 89.1 µM [inhibitor, single point]

Reference: PubChem BioAssay AID1345083 (National Center for Advancing Translational Sciences (NCATS), 2018)
